According to patent US8846868B2, “Anti-AREG/HB-EGF antibodies and treatment” (Fusion Antibodies Limited, priority 2008, dated 2014):

System: HCT116 cells
Test: MTT cell viability assay, HB-EGF siRNA and/or AREG antibody
Assay type: cell-based, human
Settings: for RI value (Sexp/Sobs; synergism RI>1): AREG antibody in combination with HBEGF siRNA; for reduction on growth: agent alone, HB-EGF siRNA 50 nM, MTT 72 hr after transfection
Method: FIG. 2 illustrates HCT116 cell proliferation following HB-EGF silencing by siRNA and/or treatment with AREG antibody. Cells were transfected with HB-EGF siRNA (50 nM) or a control siRNA (50 nM). Cell proliferation was analysed by MTT assay 72 hr after transfection;
FIG. 3 illustrates RI values calculated by MTT cell viability assays in response to HBEGF siRNA and AREG antibodies. The RI value is calculated as the ratio of expected survival (Sexp defined as the product of the survival observed with drug A alone and the survival observed with drug B alone) to the observed cell survival (Sobs) for the combination of A and B. (RI=Sexp/Sobs). Synergism is defined as RI>1;
Cells were seeded at 5 000 cells per well in a 96 well plate or 5×10^5 cells per well in a 6 well plate. The cells were cultured for 24 hours before transfection. The siRNA was made up to 100 nM in serum free DMEM and left for 5 minutes at room temperature. The Dharmafect transfection reagent was also made up in the serum free DMEM and incubated for 5 minutes at room temperature. The transfection reagent was added to the siRNA and incubated at room temperature for 20 minutes. The media was removed from the plate wells and antibiotic free DMEM was added to the wells. After 20 minutes the siRNA was added dropwise to the wells. The plates were incubated at 37° C. for 48 hours.
Cell viability was assessed by 3-(4,5-dimethylthiazol-2-yl)-2,5-diphenyltetrazolium bromide (MTT, Sigma) assay (Mosmann, 1983). To assess chemotherapy/siRNA interactions 5000 cells were seeded per well on 96 well plate. After 24 hours cells were transfected with siRNA and treated with various chemotherapeutic agents at different concentrations. After 48 hours MTT (1.0 mg/ml) was added to each well and cells were incubated at 37° C. for 2 hours. The culture media was removed and formazan crystals were reabsorbed in 200 μl DMSO. Cell viability was determined by reading the absorbance of each well at 570 nm using a microplate reader (Tecan Sunrise, Biorad, UK).

B1: 6E11 1E9 2D8: AREG monoclonal antibody (antibody, V domains shown)
VH: QVQLQQSGAELARPGASVKLSCKASGYTFTRYWMQWIKQRPGQGLEWIGAIYPGNGDIRYTQKFKGKATLTADKSSSTAYMQLSSLASEDSAVYYCARGTTPSSYWGQGTLVTVSAAKTTAPSVYPLAPVCGDTTGSSVTLGCLVKGYF
VL: DVVMTQTPLTLSVSIGQPASISCKSSQSLLDSDGKTYLNWLLQRPGQSPKRLIYLVSKLDSGVPDRFTGSGSGTDFTLKISRVEAEDLGVYYCWQGTHFPWTFGGGTKLEIKRADAAPTVSIFPPSSEQLTSGGASVVCFLNNFYPK
Q: For B1, which “RI value (Sexp/Sobs; synergism RI>1)” value is on record?
A: The value was 2.

Q: And the reduction on growth?
A: Its reduction on growth is 50%.

B2: 6E11 1E9 106: AREG monoclonal antibody; VH Sequence ID No: 3, VL Sequence ID No: 4 (antibody, listed as Mus musculus)
VH: MECNWILPFILSVTSGVYSQVQLQQSGAELARPGASVKLSCKASGYTFTRYWMQWIKQRPGQGLEWIGAIYPGNGDIRYTQKFKGKATLTADKSSSTAYMQLSSLASEDSAVYYCARGTTPSSYWGQGTLVTVSAAKTTAPSVYPLAPVCGDTTGSSVTLGCLVKGYF
light: MMSPAQFLFLLVLWIRETSGDVVMTQTPLTLSVSIGQPASISCKSSQSLLDSDGKTYLNWLLQRPGQSPKRLIYLVSKLDSGVPDRFTGSGSGTDFTLKISRVEAEDLGVYYCWQGTHFPWTFGGGTKLEIKRADAAPTVSIFPPSSEQLTSGGASVVCFLNNFYPK
Q: Which results are given for B2?
A: RI value (Sexp/Sobs; synergism RI>1): 5; reduction on growth: 50%
